Measurements published in the supplement of paper PMC4166925.
± gives the standard deviation of the averaged measurements. Whole data set: some 33,000 sequences, median “E-score (dimensionless, -0.5 to 0.5)” near -0.049, cut for the highest 2% near 0.37. This is one part of the list.

Test system: T1, PmTbr T-box DNA-binding domain (GST fusion)
T1 sequence: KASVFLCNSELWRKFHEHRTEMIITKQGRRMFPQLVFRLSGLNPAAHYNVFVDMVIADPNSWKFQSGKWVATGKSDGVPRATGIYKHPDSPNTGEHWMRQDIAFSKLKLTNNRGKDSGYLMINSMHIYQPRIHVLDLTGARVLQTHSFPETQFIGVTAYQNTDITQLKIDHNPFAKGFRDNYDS
Experiment: PBM E-score of 8-mer (E-score (dimensionless, -0.5 to 0.5)); Tbr is Tbrain of the sea star Patiria miniata (Pm) or the sea urchin Strongylocentrotus purpuratus (Sp); higher = stronger binding preference; most listed sequences are background and not binding sites
Settings: the construct has about 5 more residues each side
How it was run: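 Universal Agilent oligonucleotide arrays, made double-stranded by primer extension, were incubated with 200 nM GST-fused Tbr T-box DNA-binding domain in PBS (pH 7.5). The protein was expressed in BL21 E. coli at 20 °C and purified by glutathione affinity chromatography. After scanning and quantification, the Universal PBM Analysis Suite assigned an enrichment E-score to each ungapped 8-mer, averaged over duplicate arrays.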

Sequence	PBM E-score of 8-mer
GAAACCGC	-0.0261 ± 0.018
ATTTAACG	0.0554 ± 0.091
CGTAGCCC	-0.296 ± 0.01
ACGTATCT	-0.115 ± 0.011
CCAATGCC	-0.0626 ± 0.014
ATCGATTA	-0.208 ± 0.05
GCACTACA	0.0737 ± 0.1
AATATCTG	-0.17 ± 0.062
CACTGGGA	-0.0625 ± 0.026
TAGTTCCA	-0.0365 ± 0.003
AATGGTGC	0.193 ± 0.034
AGGGGGGA	-0.405 ± 0.04
ATTCTTCA	0.0402 ± 0.067
CGGTACAC	-0.0545 ± 0.01
GACTGATA	-0.014 ± 0.016
AGCTCCGC	-0.233 ± 0.015
ACTAACGC	0.273 ± 0.012
AACAAGAC	0.05 ± 0.017
ACTGAACC	-0.0894 ± 0.13
CTGATGTC	-0.235 ± 0.048
GGGCATCA	0.0391 ± 0.0038
AACGGCGA	-0.141 ± 0.023
ATCTTAAC	0.105 ± 0.045
CAAAAAGC	0.111 ± 0.062
CGCGCGGC	0.107 ± 0.035

Sequence	PBM E-score of 8-mer
ATTGTCCA	0.075 ± 0.02
AGGTTTAG	-0.0333 ± 0.0097
AACAATTC	-0.054 ± 0.025
CAGGTCTC	-0.0284 ± 0.0014
TATCCCGA	0.0324 ± 0.026
CCTGGCAC	0.371 ± 0.019
AATTAGTG	0.144 ± 0.0053
CTATTAAA	0.0421 ± 0.049
TCGTTCAA	-0.248 ± 0.022
GAATCCCA	-0.117 ± 0.017
CAGGGCCG	-0.0604 ± 0.0011
AGTATAAC	0.119 ± 0.067
CGGAGTCA	-0.105 ± 0.039
GGTTAACA	0.255 ± 0.026
CCCGGCTA	-0.176 ± 0.046
ATTGCTGC	0.0271 ± 0.024
CAACCCTC	-0.236 ± 0.019
ACCTTAGA	0.106 ± 0.035
AGAAGCTG	-0.0905 ± 0.062
AGGATGCC	-0.0503 ± 0.089
ACAGATTA	-0.0308 ± 0.028
AGTAGAAC	-0.0647 ± 0.049
ATCATAAC	-0.017 ± 0.035
GGATCTTA	-0.21 ± 0.034
CCAGTAGA	-0.00801 ± 0.084

Sequence	PBM E-score of 8-mer
CTAGAAGC	0.044 ± 0.043
AGCATTCG	-0.0845 ± 0.034
CGTGGGCC	-0.33 ± 0.015
AGCAAAAT	-0.0655 ± 0.029
CTGGACGA	0.151 ± 0.016
CGGAACAA	-0.0846 ± 0.066
AAAACGGC	-0.13 ± 0.055
AGTCGGTC	-0.113 ± 0.051
CGGTCTTA	-0.0111 ± 0.035
AATGTTAC	-0.0757 ± 0.051
AGCTTCTC	-0.0998 ± 0.023
GTCACGAA	0.273 ± 0.028
CGGACAAA	-0.131 ± 0.0074
GGTGGCGA	0.351 ± 0.0076
CACATACC	0.242 ± 0.0046
GAACTTAC	-0.0179 ± 0.009
CGATGTGA	0.228 ± 0.018
ATACCTGG	0.139 ± 0.025
CAGTGAGA	0.181 ± 0.028
AACGTTGT	0.0244 ± 0.055
CGAAGACG	-0.158 ± 0.047
TCCAAACA	-0.0847 ± 0.0077
CGCTTTTC	0.0493 ± 0.07
GACAAGAC	0.139 ± 0.036
CTCTGGCA	0.00132 ± 0.054

Sequence	PBM E-score of 8-mer
CTTTTACC	-0.123 ± 0.076
TAAGATAA	-0.152 ± 0.069
CTGTTGTC	0.176 ± 0.015
AATCAGCC	-0.0972 ± 0.019
TTCTTCAA	-0.17 ± 0.034
AGGGTACA	-0.168 ± 0.054
ACAGGGTC	0.0451 ± 0.0068
ATCTTGAA	-0.166 ± 0.038
GTTTATGA	-0.11 ± 0.083
CGTCTTAA	-0.164 ± 0.11
ACGGTAGT	-0.189 ± 0.027
AAGGTGTC	0.4879 ± 0.0035
GCCCACAC	0.228 ± 0.089
AATAGGGG	-0.0444 ± 0.013
CGCAGGAG	-0.0946 ± 0.095
CTATGCTC	-0.0975 ± 0.035
ATTAGGGA	-0.279 ± 0.0072
AAACGCTG	-0.126 ± 0.034
CTTCCTTC	-0.145 ± 0.048
CATACTTC	-0.286 ± 0.058
AGAAAGAT	-0.145 ± 0.0054
GTAACCAC	0.115 ± 0.0041
TGCGGCAA	-0.0539 ± 0.0016
GCTGGCTA	-0.105 ± 0.025
AAAACACG	0.196 ± 0.033

Sequence	PBM E-score of 8-mer
ATATGTAG	-0.183 ± 0.12
CCAGCGGG	-0.226 ± 0.066
ATGCAGAA	-0.138 ± 0.029
GCAGTAAA	-0.0863 ± 0.0081
AGCTTAAC	-0.0796 ± 0.062
AGTTTTCC	-0.151 ± 0.047
CCTTCTAA	0.0249 ± 0.0094
ATATCATG	-0.0112 ± 0.014
CGAATACA	0.155 ± 0.015
ATTATTAC	0.0344 ± 0.013
CATGAATG	-0.144 ± 0.055
ATGTGCAG	0.0401 ± 0.038
CCTAGGGC	-0.0447 ± 0.054
CACTTGTA	0.0949 ± 0.008
TTAGAAAA	-0.0605 ± 0.08
ACTTTTCG	0.264 ± 0.018
CTGAGCTA	-0.151 ± 0.13
TAACTGAA	0.005 ± 0.045
GCAGTGCA	-0.123 ± 0.041
ACCACGGA	-0.0578 ± 0.054
CACACAAA	0.0927 ± 0.064
GTGCGCGA	0.102 ± 0.013
CAGTTCAC	0.226 ± 0.023
AGAGGCAC	-0.218 ± 0.027
ATATTGTG	0.196 ± 0.028

Sequence	PBM E-score of 8-mer
ATTAACAG	0.143 ± 0.048
GTCAGCTA	0.00582 ± 0.052
GTATGGCA	0.0931 ± 0.062
CAGTATCA	0.0243 ± 0.028
ATGCCACG	0.114 ± 0.025
GACAGTCC	0.0238 ± 0.018
ACGACAAG	0.175 ± 0.028
AAAGTGAC	0.392 ± 0.012
CCTAGTCA	0.0299 ± 0.046
CTTCGAGA	-0.0635 ± 0.0043
GTCAAAAA	0.0926 ± 0.056
GCTTGGCA	-0.141 ± 0.012
TAAATATA	-0.132 ± 0.034
ACTGGCCT	-0.15 ± 0.025
CGCTGATA	-0.0144 ± 0.019
ACGGCTGG	-0.102 ± 0.11
CAGAGTAG	-0.139 ± 0.047
ATGACATG	-0.116 ± 0.051
ACAGGCGG	0.00416 ± 0.0023
AGGTACGG	0.0668 ± 0.048
ATGAACCA	-0.22 ± 0.029
ATCAGCAT	0.122 ± 0.0034
AAAAGTTT	0.00113 ± 0.079
ACGAGGAG	-0.129 ± 0.0062
AAGTGGGC	0.108 ± 0.026

Sequence	PBM E-score of 8-mer
CGACCTCA	0.0582 ± 0.012
CCCTACGA	-0.0988 ± 0.015
CATGTGTC	0.309 ± 0.03
CCCAGAGA	-0.12 ± 0.088
AATATACC	-0.0185 ± 0.032
ACCATACC	-0.237 ± 0.015
AGACTCGG	-0.204 ± 0.034
ACTCCTAC	-0.129 ± 0.017
GCATAAGC	-0.0896 ± 0.04
CTGCCCAC	0.0747 ± 0.074
ATACCAAG	-0.0242 ± 0.076
ACGTCGAC	0.115 ± 0.035
ACCACTCT	-0.0871 ± 0.0037
CAACATTA	-0.0938 ± 0.068
TGCGAGAA	0.3906 ± 0.0012
CCTACTAA	0.0287 ± 0.034
CGAGCCCG	-0.0416 ± 0.057
ACTTATCG	0.138 ± 0.029
CCGGTTCC	-0.214 ± 0.067
CCGTGGAA	-0.00916 ± 0.053
CCTGGCAG	0.0327 ± 0.026
CCCTAACC	-0.149 ± 0.022
